Measurements published in US20250170099A1, “TREATMENT OF POSTNATAL DEPRESSION” (GH RESEARCH IRELAND LIMITED, priority 2022, published 2025).

Test system: patients with treatment-resistant major depressive disorder (TRD)
Experiment: Phase 1/2 clinical trial of inhaled 5-MeO-DMT in TRD patients (single 12 mg or 18 mg; IDR = individualized dosing regimen 6, 12, 18 mg in a single day)

COc1ccc2[nH]cc(CCN(C)C)c2c1 [5-MeO-DMT]
patients with at least one ADR (12 mg): 3 of 4 | patients in MADRS remission (12 mg n=4, day 7): 50% | patients with at least one ADR (18 mg): 3 of 4 | BPRS emotional withdrawal percentage improvement (IDR n=8, 3 h): 35.46% | patients in MADRS remission (total score <=10) (IDR n=8, day 7): 87.5% | patients maintaining remission (IDR, day 7): ⅞ | patients achieving remission (IDR, within 2 h after dosing): ⅝ | serious adverse events (SAEs) (Part A, 12 mg and 18 mg): No SAEs | serious adverse events (SAEs) (Part B, IDR): No SAEs
